Assay results taken from PubChem BioAssay AID504333 (National Center for Advancing Translational Sciences (NCATS), 2011).
In all, about 360,000 compounds went through this assay and about 16,000 (4.4%) were called active. The shares of active, inactive and inconclusive entries below differ from those in the screen. The call rests on the fitted dose curve; in most records, active means well fitted inhibition curve with a large enough effect; inconclusive means small, poorly fitted or top-dose-only effect; inactive means no such curve, though single readings can be large or run the other way. Potencies beside an inconclusive call are fits to weak or partial responses and may not hold up.
Further: nearly all actives have a fitted effect of over 60% in size.
On the % scale 0 is the no-effect control and ±100 the full control effect; potency means the concentration at half of the fitted maximal effect; tags describe the fitted curve by direction and shape.

The molecules below were run against Bromodomain adjacent to zinc finger domain protein 2B (Homo sapiens) (UniProt Q9UIF8) (assay: qHTS Assay for Inhibitors of BAZ2B). Conditions: AlphaScreen BAZ2B-H3K14Ac peptide displacement; activity change, negative = inhibition: at 114 µM (top of the series) unless noted.
UniProt Q9UIF8, sequence (Q9UIF8 whole entry, looked up, the tested form may be a part): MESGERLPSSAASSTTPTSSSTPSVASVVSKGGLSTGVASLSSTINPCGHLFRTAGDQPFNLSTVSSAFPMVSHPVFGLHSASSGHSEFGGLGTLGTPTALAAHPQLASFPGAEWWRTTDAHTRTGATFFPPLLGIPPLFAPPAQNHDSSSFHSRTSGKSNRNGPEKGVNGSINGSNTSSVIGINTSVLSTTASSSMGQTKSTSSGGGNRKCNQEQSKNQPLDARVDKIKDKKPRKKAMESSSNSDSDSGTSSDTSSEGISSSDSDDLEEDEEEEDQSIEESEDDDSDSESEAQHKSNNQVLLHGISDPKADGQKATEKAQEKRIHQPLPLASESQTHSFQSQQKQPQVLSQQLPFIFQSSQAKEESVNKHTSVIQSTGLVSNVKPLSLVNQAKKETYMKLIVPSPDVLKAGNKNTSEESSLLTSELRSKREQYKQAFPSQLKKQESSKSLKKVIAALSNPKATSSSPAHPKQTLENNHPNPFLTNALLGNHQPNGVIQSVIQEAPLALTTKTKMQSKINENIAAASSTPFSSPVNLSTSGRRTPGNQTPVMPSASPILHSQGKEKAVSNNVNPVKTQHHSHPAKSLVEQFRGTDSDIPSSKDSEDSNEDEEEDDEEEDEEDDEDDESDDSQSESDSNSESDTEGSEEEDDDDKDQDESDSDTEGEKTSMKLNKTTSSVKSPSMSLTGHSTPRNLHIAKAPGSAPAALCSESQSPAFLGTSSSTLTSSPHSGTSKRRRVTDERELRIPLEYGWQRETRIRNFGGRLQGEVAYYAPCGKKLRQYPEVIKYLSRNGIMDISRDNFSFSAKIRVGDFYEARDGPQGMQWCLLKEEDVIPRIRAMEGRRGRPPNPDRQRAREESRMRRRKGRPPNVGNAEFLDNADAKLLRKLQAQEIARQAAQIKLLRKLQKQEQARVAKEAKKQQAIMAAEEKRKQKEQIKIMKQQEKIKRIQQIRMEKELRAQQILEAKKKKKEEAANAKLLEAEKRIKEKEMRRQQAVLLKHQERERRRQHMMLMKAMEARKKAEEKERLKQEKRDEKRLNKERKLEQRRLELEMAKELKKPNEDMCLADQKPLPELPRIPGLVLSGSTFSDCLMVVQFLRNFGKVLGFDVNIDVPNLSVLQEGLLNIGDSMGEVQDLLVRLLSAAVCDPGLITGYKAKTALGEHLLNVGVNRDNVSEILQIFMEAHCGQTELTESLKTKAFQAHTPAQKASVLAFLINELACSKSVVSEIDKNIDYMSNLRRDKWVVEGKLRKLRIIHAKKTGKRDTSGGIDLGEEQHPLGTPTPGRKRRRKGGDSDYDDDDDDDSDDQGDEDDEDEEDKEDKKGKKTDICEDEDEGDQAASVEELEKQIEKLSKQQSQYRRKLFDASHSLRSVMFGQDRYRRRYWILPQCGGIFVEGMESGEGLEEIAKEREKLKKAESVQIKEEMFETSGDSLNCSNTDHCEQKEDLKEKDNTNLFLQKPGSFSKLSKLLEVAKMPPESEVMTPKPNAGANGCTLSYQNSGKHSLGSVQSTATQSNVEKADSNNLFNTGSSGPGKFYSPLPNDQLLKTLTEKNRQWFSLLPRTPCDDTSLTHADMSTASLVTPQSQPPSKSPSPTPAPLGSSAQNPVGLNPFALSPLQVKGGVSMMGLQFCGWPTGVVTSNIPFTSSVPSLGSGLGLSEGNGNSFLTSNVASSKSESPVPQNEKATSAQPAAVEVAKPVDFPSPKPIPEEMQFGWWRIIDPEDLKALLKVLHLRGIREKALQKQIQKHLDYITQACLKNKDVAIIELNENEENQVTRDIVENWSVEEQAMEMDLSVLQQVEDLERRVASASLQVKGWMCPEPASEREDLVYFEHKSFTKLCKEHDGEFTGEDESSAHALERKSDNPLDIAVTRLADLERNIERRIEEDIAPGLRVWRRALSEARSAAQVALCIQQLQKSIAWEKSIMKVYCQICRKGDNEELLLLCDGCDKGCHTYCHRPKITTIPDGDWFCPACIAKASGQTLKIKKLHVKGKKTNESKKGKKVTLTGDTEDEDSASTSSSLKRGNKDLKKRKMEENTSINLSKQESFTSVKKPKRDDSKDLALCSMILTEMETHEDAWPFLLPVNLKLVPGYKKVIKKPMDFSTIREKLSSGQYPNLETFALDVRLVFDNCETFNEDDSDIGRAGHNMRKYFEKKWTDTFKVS
Summary of the method: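 Compounds, titrated to a top concentration of 110 uM, were incubated 30 min at room temperature with preformed BAZ2B/acetyl-K14 H3 peptide complex (50 nM each). Proximity signal was measured by AlphaScreen after 20 min with beads.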
COC(=O)c1cc(NS(=O)(=O)c2cc(Br)cc3c2N(C(C)=O)CC3)cc(C(=O)OC)c1 was tested, and the Potency was active: 70.8 µM. For COCCN(C(=O)c1snc(C(N)=O)c1N)C(C(=O)NC1CCCCC1)c1cc(OC)c(OC)c(OC)c1 (stereo not drawn), the “activity change, negative = inhibition” value was inactive: 0.305%. For O=C(Nc1ccc(Cl)cc1)N1CCCC(Cn2cccc2)C1 (stereo not drawn), the Potency was inconclusive: 50.1 µM [inhibitor, partial curve]. For Cc1ccc2nc(N(CCCN(C)C)C(=O)c3cc(-c4cccs4)nc4ccccc34)sc2c1, the Potency was active: 25.1 µM. In the case of O=C(COC(=O)/C=C/c1ccccc1[N+](=O)[O-])NC1CCS(=O)(=O)C1 (stereo not drawn), the “activity change, negative = inhibition” value is reported as inactive: -1.17%. COC1(OC)N=C(NC(=O)Nc2ccccc2)C2(C#N)C(c3ccccc3)C12C#N (stereo not drawn) was tested, and the Potency was inconclusive: 89.1 µM [inhibitor, single point]. For COC(=O)/C(=N/Nc1ccccc1OC)N1CCCc2ccccc21, the Potency was inconclusive: 39.8 µM [inhibitor, partial curve]. With Oc1ccc(/C=N/N2CCCCC2)c(O)c1 the Potency was inconclusive: 89.1 µM [inhibitor, single point]. For S=c1nc[nH]c2c1cnn2Cc1ccccc1, the activity change, negative = inhibition was inconclusive: -72% [inhibitor]. For CC(C)c1nn2c(=O)cc(COC(=O)COc3ccccc3F)nc2s1, the “activity change, negative = inhibition” value was inactive: -14.2%. In the case of Cc1cc(C(=O)CN2C(=O)NC3(CCCc4ccccc43)C2=O)c(C)n1Cc1ccccc1 (stereo not drawn), the Potency is reported as inconclusive: 14.1 µM [inhibitor, full curve]. With Cc1cccc(NC(c2nnc(-c3ccccc3)o2)c2ccc(F)cc2Cl)c1C (stereo not drawn) the “activity change, negative = inhibition” value was inactive: -6.96%. For COc1ccc(OC)c(NC(=O)C2CCN(Cc3cnn(-c4ccccc4)c3-n3cccc3)CC2)c1, the Potency was inconclusive: 44.7 µM [inhibitor, partial curve]. For Cc1ccc(Cl)cc1N1CCN(C(=O)C2CCN(S(=O)(=O)c3c(C)noc3/C=C/c3ccccc3F)CC2)CC1, the “activity change, negative = inhibition” value was inactive: 0.0707%. O=C(CN1CCCc2ccccc21)N/N=C/c1ccccc1 was tested, and the Potency was inconclusive: 70.8 µM [inhibitor, single point]. With Cn1c(C(=O)Nc2cccc(Cl)c2)cc2c(=O)n(C)c3ccccc3c21 the “activity change, negative = inhibition” value was inactive: -12%. In the case of O=[N+]([O-])c1ccc(OCCN2CCNCC2)cc1, the Potency is reported as active: 50.1 µM. For Cc1ccc(NC(=O)CN(C)C(=O)c2ccc(Cl)nc2)cc1, the “activity change, negative = inhibition” value was inactive: 0.247%. In the case of COc1cc(/C=N\NC(=O)CC#N)ccc1OC/C=C/c1ccccc1, the Potency is reported as active: 56.2 µM. In the case of COc1ccc(Nc2nc(NC(C)(C)C)nc(N3CCCC3)n2)c(OC)c1, the Potency is reported as active: 35.5 µM. With Cc1ccccc1NC(=O)CSc1nnc(Cc2cccn2C)n1-c1ccc(F)cc1 the Potency was inconclusive: 70.8 µM [inhibitor, single point]. For CC(=O)N(C1=C(O)c2ccccc2C(=O)C1=O)C1CCCCC1, the Potency was inconclusive: 89.1 µM [inhibitor, single point]. For COC(=O)COc1coc(CN2CCN(c3cccc(Cl)c3)CC2)cc1=O, the “activity change, negative = inhibition” value was inactive: -13.6%. COc1ccc(C2/C(=C(/O)c3ccc(C)cc3)C(=O)C(=O)N2c2ccccn2)cc1 (stereo not drawn) was tested, and the “activity change, negative = inhibition” value was inactive: -12.9%. In the case of CCOCCc1nn2c(=O)cc(COC(=O)c3ccc4c(c3)OCO4)nc2s1, the “activity change, negative = inhibition” value is reported as inactive: 2.86%. COc1ccc(-c2nnc(SCC(=O)NNC(=O)Cc3ccccc3)n2C)cc1OC was tested, and the “activity change, negative = inhibition” value was inactive: 8.8%. In the case of COc1ccccc1CCc1nnc(CCC(=O)NC(C)Cc2cccs2)o1 (stereo not drawn), the “activity change, negative = inhibition” value is reported as inactive: -3.17%. For Cc1cccc2sc(N(CCN(C)C)C(=O)c3ccc4ccccc4c3)nc12, the Potency was inconclusive: 22.4 µM [inhibitor, partial curve]. For CC(NC(=O)C12CC3CC(CC(O)(C3)C1)C2)c1ccccc1 (stereo not drawn), the “activity change, negative = inhibition” value was inactive: 5.87%. For O=C(CN1C(=O)CC(c2ccco2)Sc2ccccc21)Nc1ccc(OC(F)(F)F)cc1 (stereo not drawn), the “activity change, negative = inhibition” value was inactive: -0.161%. With C=CCn1c(C)cc(C(=O)COC(=O)c2cncc(Br)c2)c1C the Potency was inconclusive: 79.4 µM [inhibitor, single point]. With O=C(NCc1ccc2c(c1)OCO2)c1ccc(-c2ccc(Cl)cc2)o1 the Potency was inconclusive: 35.5 µM [inhibitor, full curve]. With O=S(=O)(Nc1ccc(N2CCCCC2)cc1)c1cccc2cccnc12 the Potency was inconclusive: 35.5 µM [inhibitor, full curve]. In the case of CCCN(C(=O)Cn1nc(Cc2cccnc2)c2ccccc2c1=O)c1ccc(C(C)C)cc1, the Potency is reported as inconclusive: 28.2 µM [inhibitor, full curve, poor fit]. With COc1ccccc1C(=O)N/C(=C/c1ccco1)C(=O)Nc1ccc(C(=O)O)cc1 the Potency was inconclusive: 89.1 µM [inhibitor, single point]. For Cc1oc2ccccc2c1CC(=O)NCCCN(C)C, the Potency was inconclusive: 89.1 µM [inhibitor, single point]. For COc1ccc(NC2c3ccccc3C(=O)N2c2ccccn2)cc1Cl (stereo not drawn), the Potency was inconclusive: 89.1 µM [inhibitor, single point]. In the case of CC1Cc2cc(/C(O)=C3/C(=O)C(=O)N(CC4CCCO4)C3c3ccco3)ccc2O1 (stereo not drawn), the Potency is reported as inconclusive: 89.1 µM [inhibitor, single point]. Cc1cccn2c(=O)c(C=O)c(N3CCN(c4ccc(F)cc4)CC3)nc12 was tested, and the Potency was inconclusive: 50.1 µM [inhibitor, partial curve]. In the case of COc1ccc(NS(=O)(=O)c2cc(NC(=O)c3ccc(=O)[nH]c3)ccc2N2CCCC2)cc1, the Potency is reported as active: 39.8 µM. In the case of CCOC(=O)c1sc(NC(=O)CSc2nnc(Cc3ccccc3)o2)c(C#N)c1C, the Potency is reported as inconclusive: 39.8 µM [inhibitor, partial curve]. CC1CCc2sc3nc(N4CCN(CCO)CC4)n4ncnc4c3c2C1 (stereo not drawn) was tested, and the Potency was inconclusive: 44.7 µM [inhibitor, partial curve]. CCS(=O)(=O)N1CCN(Cc2ccc([N+](=O)[O-])cc2)CC1 was tested, and the Potency was active: 50.1 µM. For O=C(NCCSc1ccccc1)c1cncc(Br)c1, the Potency was inconclusive: 11.2 µM [inhibitor, single point]. For O=C(CSc1nnc(-c2ccc(Br)cc2)n1CCc1ccccc1)NC1CCS(=O)(=O)C1 (stereo not drawn), the “activity change, negative = inhibition” value was inactive: 3.4%. With Nc1ccc2nc(CCCCc3nc4ccccc4[nH]3)[nH]c2c1 the Potency was inconclusive: 44.7 µM [inhibitor, partial curve]. In the case of Cc1c(Cl)cccc1N=Cc1ccc([N+](=O)[O-])s1, the Potency is reported as inconclusive: 44.7 µM [inhibitor, partial curve]. In the case of N#C/C(=N\Nc1ccc(S(=O)(=O)N2CCc3ccccc32)cc1)C(N)=S, the Potency is reported as active: 31.6 µM. In the case of Cc1cccc(-c2cc(C(=O)O)c3c(-c4ccc(F)cc4)[nH]nc3n2)c1, the Potency is reported as inconclusive: 35.5 µM [inhibitor, full curve, poor fit]. For O=C(CN1CCN(Cc2ccccc2Cl)CC1)N/N=C/C=C/c1ccccc1[N+](=O)[O-], the Potency was inconclusive: 50.1 µM [inhibitor, partial curve]. CCc1nn2c(=O)cc(COc3ccc(/C=C4\C(=N)N5N=C(C)SC5=NC4=O)cc3)nc2s1 was tested, and the Potency was active: 50.1 µM. With O=C1Nc2ccccc2C12OC1CCCCC1O2 (stereo not drawn) the “activity change, negative = inhibition” value was inactive: -2.99%. Cc1nc(NC(=O)c2ccco2)sc1-c1csc(Nc2ccc(Cl)cc2)n1 was tested, and the Potency was inconclusive: 50.1 µM [inhibitor, partial curve]. For CCc1ccc(S(=O)(=O)NCCc2cn3ccc(C)cc3n2)s1, the “activity change, negative = inhibition” value was inactive: -15.7%. For N#CC1=C(N)NC(SCc2ccccc2)=C(C#N)C12CCCCC2, the “activity change, negative = inhibition” value was inactive: -13.1%. With CCOc1ccc(C(=O)NCC(=O)Nc2ccc3c(c2)OCO3)cc1OCC the “activity change, negative = inhibition” value was inactive: -14.9%. In the case of COc1ccc(C2=NN(c3ccccc3)C(=O)/C2=C\c2ccc(O)c(OC)c2)cc1, the Potency is reported as active: 25.1 µM. For Cc1ccn2c(-c3csc(NCc4ccccc4)n3)c(C)nc2c1, the Potency was active: 31.6 µM. For COc1cc(/C=C2/C(=O)N(c3ccc([N+](=O)[O-])cc3)N=C2N2CCOCC2)ccc1O, the Potency was inconclusive: 50.1 µM [inhibitor, partial curve]. With O=c1[nH]c2ccc(S(=O)(=O)Nc3cc(Cl)ccc3O)cc2o1 the Potency was active: 39.8 µM. For NCC(=O)Nc1ccc(Cl)cc1C(=O)c1ccc[nH]1, the Potency was inconclusive: 89.1 µM [inhibitor, single point]. In the case of CCC(C)NS(=O)(=O)c1ccc(OCC(=O)Nc2ccc3c(c2)OCO3)cc1 (stereo not drawn), the Potency is reported as inconclusive: 100 µM [inhibitor, single point]. With Cc1c(NC(=O)c2ccc(-c3ccc(F)cc3)o2)cccc1-c1nc2ncccc2o1 the “activity change, negative = inhibition” value was inactive: -32.3%. O=C(NC(=S)NNC(=O)c1ccccc1O)c1cccc([N+](=O)[O-])c1 was tested, and the Potency was active: 44.7 µM. Cc1cc(/C=C2\SC(=S)N(C)C2=O)c(C)n1-c1cccc(O)c1 was tested, and the “activity change, negative = inhibition” value was inactive: -32.4%. In the case of COc1ccc(C2=NS(=O)(=O)N(C)C(C(=O)Nc3ccc4c(c3)OCO4)=C2)cc1OC, the Potency is reported as inconclusive: 44.7 µM [inhibitor, partial curve]. In the case of O=C(NC(=S)NNC(=O)c1ccccc1O)c1ccccc1, the Potency is reported as inconclusive: 50.1 µM [inhibitor, partial curve, poor fit]. With COc1ccc(C2NC(=O)NC(C)=C2C(=O)OCc2ccccc2)cc1 (stereo not drawn) the Potency was inconclusive: 89.1 µM [inhibitor, single point]. For COc1cc(OC)c(S(=O)(=O)NC(C)C)cc1S(=O)(=O)NC(C)C, the “activity change, negative = inhibition” value was inactive: 12%. CC(=O)c1ccc2c(c1)OCCOCCOCCO2 was tested, and the Potency was inconclusive: 89.1 µM [inhibitor, single point]. CC(Sc1nnc(-c2cccs2)n1Cc1ccccc1)C(=O)NCc1ccc2c(c1)OCO2 (stereo not drawn) was tested, and the Potency was inconclusive: 89.1 µM [inhibitor, single point]. For O=C(c1ccco1)N1CCN(CC2CC3C=CC2C3)CC1 (stereo not drawn), the Potency was active: 50.1 µM. For COc1cc2nc(N3CCN(C(=O)C4COc5ccccc5O4)CC3)nc(N)c2cc1OC (stereo not drawn), the Potency was inconclusive: 50.1 µM [inhibitor, partial curve].
